According to the supplement of paper PMC8728848:
Some of the results follow.

Experiments:
Test in all cases: glycan array binding signal (z-score within array); higher = stronger binding
Settings in all cases: glycan notation: IUPAC condensed, linker removed
[1] = molecular target: Fuc(a1-2)Gal(b1-4)[Fuc(a1-3)]GlcNAc(b1-3)[Neu5Ac(a2-6)Gal(b1-4)GlcNAc(b1-6)]Gal(b1-4)Glc
Procedure, shortened: (§1)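 The binding signal is a Z-score computed within each array. Data were drawn from 3228 arrays in the Consortium for Functional Glycomics database, restricted to those with a known protein sequence. Scores were averaged over arrays of the same protein sequence at different concentrations or buffers, and over linkers, and negative values can be taken as non-binding.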

[2] = molecular target: Fuc(a1-2)Gal3S(b1-4)GlcNAc
Procedure, shortened: as §1

[3] = molecular target: Fuc(a1-2)Gal6S(b1-3)GlcNAc
Procedure, shortened: as §1

[4] = molecular target: Fuc(a1-2)Gal6S(b1-3)GlcNAc6S
Procedure, shortened: as §1

Fuc(a1-2)Gal6S(b1-4)Glc = molecular target: Fuc(a1-2)Gal6S(b1-4)Glc
Procedure, shortened: as §1

[5] = molecular target: Fuc(a1-2)Gal6S(b1-4)Glc6S
Procedure, shortened: as §1

[6] = molecular target: Fuc(a1-2)Gal6S(b1-4)GlcNAc
Procedure, shortened: as §1

Fuc(a1-2)GlcNAc = molecular target: Fuc(a1-2)GlcNAc
Procedure, shortened: as §1

Fuc(a1-2)[Gal(a1-3)]Gal = molecular target: Fuc(a1-2)[Gal(a1-3)]Gal
Procedure, shortened: as §1

[7] = molecular target: Fuc(a1-2)[Gal(a1-3)]Gal(b1-3)GalNAc
Procedure, shortened: as §1

[8] = molecular target: Fuc(a1-2)[Gal(a1-3)]Gal(b1-3)GalNAc(b1-3)Gal(a1-4)Gal(b1-4)Glc
Procedure, shortened: as §1

[9] = molecular target: Fuc(a1-2)[Gal(a1-3)]Gal(b1-3)GlcNAc
Procedure, shortened: as §1

[10] = molecular target: Fuc(a1-2)[Gal(a1-3)]Gal(b1-3)GlcNAc(b1-2)Man(a1-3)[Fuc(a1-2)[Gal(a1-3)]Gal(b1-3)GlcNAc(b1-2)Man(a1-6)]Man(b1-4)GlcNAc(b1-4)GlcNAc
Procedure, shortened: as §1

[11] = molecular target: Fuc(a1-2)[Gal(a1-3)]Gal(b1-3)GlcNAc(b1-2)Man(a1-3)[Fuc(a1-2)[Gal(a1-3)]Gal(b1-3)GlcNAc(b1-2)Man(a1-6)]Man(b1-4)GlcNAc(b1-4)[Fuc(a1-6)]GlcNAc
Procedure, shortened: as §1

[12] = molecular target: Fuc(a1-2)[Gal(a1-3)]Gal(b1-3)GlcNAc(b1-3)GalNAc
Procedure, shortened: as §1

[13] = molecular target: Fuc(a1-2)[Gal(a1-3)]Gal(b1-3)GlcNAc(b1-6)GalNAc
Procedure, shortened: as §1

[14] = molecular target: Fuc(a1-2)[Gal(a1-3)]Gal(b1-4)Glc
Procedure, shortened: as §1

[15] = molecular target: Fuc(a1-2)[Gal(a1-3)]Gal(b1-4)GlcNAc
Procedure, shortened: as §1

[16] = molecular target: Fuc(a1-2)[Gal(a1-3)]Gal(b1-4)GlcNAc(b1-2)Man
Procedure, shortened: as §1

[17] = molecular target: Fuc(a1-2)[Gal(a1-3)]Gal(b1-4)GlcNAc(b1-2)Man(a1-3)[Fuc(a1-2)[Gal(a1-3)]Gal(b1-4)GlcNAc(b1-2)Man(a1-6)]Man(b1-4)GlcNAc(b1-4)GlcNAc
Procedure, shortened: as §1

[18] = molecular target: Fuc(a1-2)[Gal(a1-3)]Gal(b1-4)GlcNAc(b1-2)Man(a1-3)[Fuc(a1-2)[Gal(a1-3)]Gal(b1-4)GlcNAc(b1-2)Man(a1-6)]Man(b1-4)GlcNAc(b1-4)[Fuc(a1-6)]GlcNAc
Procedure, shortened: as §1

[19] = molecular target: Fuc(a1-2)[Gal(a1-3)]Gal(b1-4)GlcNAc(b1-3)Gal(b1-4)Glc
Procedure, shortened: as §1

[20] = molecular target: Fuc(a1-2)[Gal(a1-3)]Gal(b1-4)GlcNAc(b1-3)GalNAc
Procedure, shortened: as §1

[21] = molecular target: Fuc(a1-2)[Gal(a1-3)]Gal(b1-4)GlcNAc(b1-6)GalNAc
Procedure, shortened: as §1

[22] = molecular target: Fuc(a1-2)[Gal(a1-3)]Gal(b1-4)[Fuc(a1-3)]Glc
Procedure, shortened: as §1

[23] = molecular target: Fuc(a1-2)[Gal(a1-3)]Gal(b1-4)[Fuc(a1-3)]GlcNAc
Procedure, shortened: as §1

[24] = molecular target: Fuc(a1-2)[Gal(a1-3)]Gal(b1-4)[Fuc(a1-3)]GlcNAc(b1-3)GalNAc
Procedure, shortened: as §1

[25] = molecular target: Fuc(a1-2)[Gal(a1-4)]Gal(b1-4)GlcNAc
Procedure, shortened: as §1

[26] = molecular target: Fuc(a1-2)[GalNAc(a1-3)]Gal
Procedure, shortened: as §1

[27] = molecular target: Fuc(a1-2)[GalNAc(a1-3)]Gal(b1-3)GalNAc(a1-3)[Fuc(a1-2)]Gal(b1-4)GlcNAc
Procedure, shortened: as §1

[28] = molecular target: Fuc(a1-2)[GalNAc(a1-3)]Gal(b1-3)GalNAc(b1-3)Gal(a1-4)Gal(b1-4)Glc
Procedure, shortened: as §1

[29] = molecular target: Fuc(a1-2)[GalNAc(a1-3)]Gal(b1-3)GlcNAc
Procedure, shortened: as §1

[30] = molecular target: Fuc(a1-2)[GalNAc(a1-3)]Gal(b1-3)GlcNAc(b1-2)Man(a1-3)[Fuc(a1-2)[GalNAc(a1-3)]Gal(b1-3)GlcNAc(b1-2)Man(a1-6)]Man(b1-4)GlcNAc(b1-4)GlcNAc
Procedure, shortened: as §1

[31] = molecular target: Fuc(a1-2)[GalNAc(a1-3)]Gal(b1-3)GlcNAc(b1-2)Man(a1-3)[Fuc(a1-2)[GalNAc(a1-3)]Gal(b1-3)GlcNAc(b1-2)Man(a1-6)]Man(b1-4)GlcNAc(b1-4)[Fuc(a1-6)]GlcNAc
Procedure, shortened: as §1

[32] = molecular target: Fuc(a1-2)[GalNAc(a1-3)]Gal(b1-3)GlcNAc(b1-3)Gal(b1-4)Glc
Procedure, shortened: as §1

[33] = molecular target: Fuc(a1-2)[GalNAc(a1-3)]Gal(b1-3)GlcNAc(b1-3)GalNAc
Procedure, shortened: as §1

[34] = molecular target: Fuc(a1-2)[GalNAc(a1-3)]Gal(b1-3)GlcNAc(b1-6)GalNAc
Procedure, shortened: as §1

[35] = molecular target: Fuc(a1-2)[GalNAc(a1-3)]Gal(b1-3)[Fuc(a1-4)]GlcNAc(b1-3)Gal(b1-4)Glc
Procedure, shortened: as §1

[36] = molecular target: Fuc(a1-2)[GalNAc(a1-3)]Gal(b1-4)Glc
Procedure, shortened: as §1

[37] = molecular target: Fuc(a1-2)[GalNAc(a1-3)]Gal(b1-4)GlcNAc
Procedure, shortened: as §1

[38] = molecular target: Fuc(a1-2)[GalNAc(a1-3)]Gal(b1-4)GlcNAc(b1-2)Man
Procedure, shortened: as §1

[39] = molecular target: Fuc(a1-2)[GalNAc(a1-3)]Gal(b1-4)GlcNAc(b1-2)Man(a1-3)[Fuc(a1-2)[GalNAc(a1-3)]Gal(b1-4)GlcNAc(b1-2)Man(a1-6)]Man(b1-4)GlcNAc(b1-4)GlcNAc
Procedure, shortened: as §1

[40] = molecular target: Fuc(a1-2)[GalNAc(a1-3)]Gal(b1-4)GlcNAc(b1-2)Man(a1-3)[Fuc(a1-2)[GalNAc(a1-3)]Gal(b1-4)GlcNAc(b1-2)Man(a1-6)]Man(b1-4)GlcNAc(b1-4)[Fuc(a1-6)]GlcNAc
Procedure, shortened: as §1

[41] = molecular target: Fuc(a1-2)[GalNAc(a1-3)]Gal(b1-4)GlcNAc(b1-3)Gal(b1-4)GlcNAc
Procedure, shortened: as §1

[42] = molecular target: Fuc(a1-2)[GalNAc(a1-3)]Gal(b1-4)GlcNAc(b1-3)Gal(b1-4)GlcNAc(b1-3)Gal(b1-4)GlcNAc
Procedure, shortened: as §1

[43] = molecular target: Fuc(a1-2)[GalNAc(a1-3)]Gal(b1-4)GlcNAc(b1-3)GalNAc
Procedure, shortened: as §1

[44] = molecular target: Fuc(a1-2)[GalNAc(a1-3)]Gal(b1-4)GlcNAc(b1-3)[Fuc(a1-2)[GalNAc(a1-3)]Gal(b1-4)GlcNAc(b1-6)]GalNAc
Procedure, shortened: as §1

[45] = molecular target: Fuc(a1-2)[GalNAc(a1-3)]Gal(b1-4)GlcNAc(b1-6)GalNAc
Procedure, shortened: as §1

[46] = molecular target: Fuc(a1-2)[GalNAc(a1-3)]Gal(b1-4)[Fuc(a1-3)]GlcNAc
Procedure, shortened: as §1

[47] = molecular target: Fuc(a1-2)[GalNAc(a1-3)]Gal(b1-4)[Fuc(a1-3)]GlcNAc(b1-3)GalNAc
Procedure, shortened: as §1

[48] = molecular target: Fuc(a1-2)[GalNAc(a1-4)]Gal(b1-4)GlcNAc
Procedure, shortened: as §1

[49] = molecular target: Fuc(a1-2)[GalNAc(b1-3)]Gal
Procedure, shortened: as §1

[50] = molecular target: Fuc(a1-2)[Neu5Ac(bond)]Gal(b1-3)GlcNAc(b1-3)Gal(b1-4)Glc
Procedure, shortened: as §1

Fuc(a1-3)GlcNAc = molecular target: Fuc(a1-3)GlcNAc
Procedure, shortened: as §1

Fuc(a1-3)GlcNAc6S = molecular target: Fuc(a1-3)GlcNAc6S
Procedure, shortened: as §1

[51] = molecular target: Fuc(a1-3)[3dGal(b1-4)]Glc
Procedure, shortened: as §1

[52] = molecular target: Fuc(a1-3)[3dGal(b1-4)]GlcNAc(b1-3)Gal
Procedure, shortened: as §1

Fuc(a1-3)[Gal(b1-4)]Glc = molecular target: Fuc(a1-3)[Gal(b1-4)]Glc
Procedure, shortened: as §1

[53] = molecular target: Fuc(a1-3)[Gal(b1-4)]Glc6S
Procedure, shortened: as §1

[54] = molecular target: Fuc(a1-3)[Gal(b1-4)]GlcNAc
Procedure, shortened: as §1

B1: PNA (Arachis hypogaea), P02872 (protein)
chain: MKPFCVFLTFFLLLAASSKKVDSAETVSFNFNSFSEGNPAINFQGDVTVLSNGNIQLTNLNKVNSVGRVLYAMPVRIWSSATGNVASFLTSFSFEMKDIKDYDPADGIIFFIAPEDTQIPAGSIGGGTLGVSDTKGAGHFVGVEFDTYSNSEYNDPPTDHVGIDVNSVDSVKTVPWNSVSGAVVKVTVIYDSSTKTLSVAVTNDNGDITTIAQVVDLKAKLPERVKFGFSASGSLGGRQIHLIRSWSFTSTLITTTRRSIDNNEKKIMNMASA
glycan array binding signal (z-score) [1]: -0.326
glycan array binding signal (z-score) [2]: -0.183
glycan array binding signal (z-score) [3]: -0.374
glycan array binding signal (z-score) [4]: -0.266
glycan array binding signal (z-score) (Fuc(a1-2)Gal6S(b1-4)Glc): -0.186
glycan array binding signal (z-score) [5]: -0.145
glycan array binding signal (z-score) [6]: -0.158
glycan array binding signal (z-score) (Fuc(a1-2)GlcNAc): -0.21
glycan array binding signal (z-score) (Fuc(a1-2)[Gal(a1-3)]Gal): -0.173
glycan array binding signal (z-score) [7]: -0.246
glycan array binding signal (z-score) [8]: -0.328
glycan array binding signal (z-score) [9]: -0.115
glycan array binding signal (z-score) [10]: -0.158
glycan array binding signal (z-score) [11]: -0.244
glycan array binding signal (z-score) [12]: -0.24
glycan array binding signal (z-score) [13]: -0.158
glycan array binding signal (z-score) [14]: -0.158
glycan array binding signal (z-score) [15]: -0.167
glycan array binding signal (z-score) [16]: -0.159
glycan array binding signal (z-score) [17]: -0.179
glycan array binding signal (z-score) [18]: -0.238
glycan array binding signal (z-score) [19]: -0.195
glycan array binding signal (z-score) [20]: -0.202
glycan array binding signal (z-score) [21]: -0.271
glycan array binding signal (z-score) [22]: -0.09
glycan array binding signal (z-score) [23]: -0.103
glycan array binding signal (z-score) [24]: -0.214
glycan array binding signal (z-score) [25]: -0.155
glycan array binding signal (z-score) [26]: -0.219
glycan array binding signal (z-score) [27]: -0.181
glycan array binding signal (z-score) [28]: -0.375
glycan array binding signal (z-score) [29]: -0.097
glycan array binding signal (z-score) [30]: -0.159
glycan array binding signal (z-score) [31]: -0.127
glycan array binding signal (z-score) [32]: -0.195
glycan array binding signal (z-score) [33]: -0.225
glycan array binding signal (z-score) [34]: -0.28
glycan array binding signal (z-score) [35]: -0.195
glycan array binding signal (z-score) [36]: -0.167
glycan array binding signal (z-score) [37]: -0.171
glycan array binding signal (z-score) [38]: -0.252
glycan array binding signal (z-score) [39]: -0.29
glycan array binding signal (z-score) [40]: -0.229
glycan array binding signal (z-score) [41]: -0.147
glycan array binding signal (z-score) [42]: 0.074
glycan array binding signal (z-score) [43]: -0.177
glycan array binding signal (z-score) [44]: -0.289
glycan array binding signal (z-score) [45]: -0.241
glycan array binding signal (z-score) [46]: -0.123
glycan array binding signal (z-score) [47]: -0.116
glycan array binding signal (z-score) [48]: 0.129
glycan array binding signal (z-score) [49]: -0.151
glycan array binding signal (z-score) [50]: -0.195
glycan array binding signal (z-score) (Fuc(a1-3)GlcNAc): -0.187
glycan array binding signal (z-score) (Fuc(a1-3)GlcNAc6S): -0.195
glycan array binding signal (z-score) [51]: -0.195
glycan array binding signal (z-score) [52]: -0.195
glycan array binding signal (z-score) (Fuc(a1-3)[Gal(b1-4)]Glc): -0.195
glycan array binding signal (z-score) [53]: -0.06
glycan array binding signal (z-score) [54]: -0.186
